# From the supplement of paper PMC3334620
# Whole data set: some 33,000 sequences, median “E-score (-0.5 to 0.5)” near -0.056, cut for the highest 2% near 0.38. This is one part of the list.
# Biological target: Stb4 (UniProt P50104)
# Test: PBM E-score (8-mer binding enrichment) (E-score (-0.5 to 0.5)); higher = stronger / more preferred TF binding; most listed sequences are background and not binding sites
# Conditions: protein concentration: 200 nM; construct: GST-DNA-binding domain
# Procedure: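 Universal 'all 10-mer' protein binding microarrays (Agilent AMADID 015681) probed with GST-tagged S. cerevisiae TFs (full-length or DBD) made by in vitro transcription/translation (PURExpress), about 100-200 nM. Bound TF was detected with fluorescent anti-GST. Each ungapped 8-mer (which stands for itself and its reverse complement) is scored by the PBM enrichment score (E-score), a modified Wilcoxon-Mann-Whitney statistic from -0.5 to +0.5, computed with the Universal PBM Analysis Suite. Scale: above 0.35 generally sequence-specific binding.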
row,Sequence,PBM E-score
1,CCTTCACG,-0.096
2,GCATTACA,-0.121
3,CAAAAACC,0.0906
4,CTCGCACA,-0.0638
5,GCTGGGGA,-0.181
6,CTGACAGC,-0.101
7,ACGATCAT,-0.174
8,CAGACAGA,-0.288
9,CATCCCAA,-0.165
10,GGTACGAC,0.079
11,CACTCCGC,0.0485
12,ACTTTCAG,-0.114
13,GCACTCCA,-0.0902
14,GCCGAGAC,0.392
15,CATATCTC,-0.0377
16,CTCGATGC,-0.166
17,GGCTACTA,0.0929
18,AGCACACG,-0.159
19,AAAATAAC,-0.0433
20,CACGTGAA,-0.156
21,CGGACATC,0.172
22,CGCCGAAA,0.34

row,Sequence,PBM E-score
1,TATGGAAA,-0.0329
2,CAGGGTAA,-0.159
3,CCTACTAG,-0.317
4,CAGGATCA,-0.204
5,CGCGGACC,0.204
6,GGTCAAGA,-0.233
7,AGTGGATC,0.173
8,ATATGGCG,0.0558
9,CGGGATCA,0.291
10,AAGTACGT,-0.237
11,ATCGCTTG,-0.295
12,AGCCCAAT,-0.244
13,GTCGGCAC,0.361
14,ACGAATGC,-0.279
15,ACTTTTCA,-0.359
16,CCACTGGG,-0.231
17,CCTTTGTA,-0.186
18,AGGCAATC,-0.183
19,GAGATGGC,0.147
20,GTCCAGAA,-0.0108
21,CACAGTTC,0.173
22,CACTTTCG,0.175

row,Sequence,PBM E-score
1,CATAGCGA,-0.265
2,CGTCACCC,0.119
3,AGGTGGGG,-0.0596
4,GTCCCTGA,-0.122
5,AAAATGGC,0.1
6,CCGGCAAC,0.282
7,AGGGACGA,-0.112
8,CAAGTAGA,0.00616
9,TGCATTAA,-0.0336
10,TCTTACCA,-0.222
11,CTAGGAAA,-0.236
12,CCTTATGC,-0.124
13,GAGCTATC,0.0487
14,ATGACTGG,-0.0325
15,CCGTCCCG,0.366
16,GCGGCGGA,0.283
17,ACTTACCA,-0.22
18,CCTTGGGA,-0.113
19,TAATAGAA,-0.097
20,AGTCGAGG,-0.184
21,ACCCCGAC,0.248
22,CGGGCTAA,0.157

row,Sequence,PBM E-score
1,GAACGAAC,-0.00145
2,AAAGTCCA,-0.235
3,AATCCCTA,-0.186
4,ACTATCCT,-0.0638
5,AGGGCTAG,-0.142
6,AGCCTGGA,-0.138
7,AGGGTCAG,-0.249
8,AGACAGAC,-0.00021
9,CTCAACTA,0.179
10,ATATAGAA,-0.00737
11,GTAGACTA,-0.0794
12,TAATGCCA,-0.0954
13,GCCTCAAC,-0.11
14,ATACTTAC,0.00871
15,GAATCAAA,0.0314
16,CGATGCAG,0.0391
17,ACTTCCTG,-0.0685
18,AGTTGTCA,0.0249
19,TAGACACA,-0.11
20,TCTATCCA,-0.0645
